# Experimental data: the supplement of paper PMC8728848
# This is one part of the list.
# B1: Epa22 (Candida glabrata) (protein)
# chain: MGSSHHHHHHSSGLVPRGSHMKRALSSQNPFGYPIGCSPQSTNVIPGLTMELYSYPIVSGTPPNCYDASYVDPEYPRTGYLKRKMIGKSTGVTGSLNYKFSVEKACMVKYGNLPAGYNYNEPLTVSNFTMLLYGYFKPQTSGIHTFFVNADDLLYINFGAGNAFDCCKREDSKFKLGEYVAYDIWHVDSSKNKVSLNLEKDVYYPIRMFFNNIGKDSSLDLSFSVNGAVEHITDFSGYLYSVPDQPDACPAPIGYDTTCK
# Legend:
# Test in all cases: glycan array binding signal (z-score within array); higher = stronger binding
# Details in all cases: glycan notation: IUPAC condensed, linker removed
# [1] = target: Gal(b1-4)GlcNAc(b1-3)Gal(b1-4)GlcNAc(b1-2)[Gal(b1-4)GlcNAc(b1-3)Gal(b1-4)GlcNAc(b1-6)]Man(a1-6)[Gal(b1-4)GlcNAc(b1-3)Gal(b1-4)GlcNAc(b1-2)Man(a1-3)]Man(b1-4)GlcNAc(b1-4)GlcNAc
# How it was run: (§1)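 The binding signal is a Z-score computed within each array. Data were drawn from 3228 arrays in the Consortium for Functional Glycomics database, restricted to those with a known protein sequence. Scores were averaged over arrays of the same protein sequence at different concentrations or buffers, and over linkers, and negative values can be taken as non-binding.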
# [2] = target: Gal(b1-4)GlcNAc(b1-3)Gal(b1-4)GlcNAc(b1-2)[Gal(b1-4)GlcNAc(b1-3)Gal(b1-4)GlcNAc(b1-6)]Man(a1-6)[Gal(b1-4)GlcNAc(b1-3)Gal(b1-4)GlcNAc(b1-2)Man(a1-3)]Man(b1-4)GlcNAc(b1-4)[Fuc(a1-6)]GlcNAc
# How it was run: as §1
# [3] = target: Gal(b1-4)GlcNAc(b1-3)Gal(b1-4)GlcNAc(b1-3)Gal(b1-4)GlcNAc
# How it was run: as §1
# [4] = target: Gal(b1-4)GlcNAc(b1-3)Gal(b1-4)GlcNAc(b1-3)Gal(b1-4)GlcNAc(b1-2)Man(a1-3)[Gal(b1-4)GlcNAc(b1-3)Gal(b1-4)GlcNAc(b1-3)Gal(b1-4)GlcNAc(b1-2)Man(a1-6)]Man(b1-4)GlcNAc(b1-4)GlcNAc
# How it was run: as §1
# [5] = target: Gal(b1-4)GlcNAc(b1-3)Gal(b1-4)GlcNAc(b1-3)Gal(b1-4)GlcNAc(b1-2)Man(a1-3)[Gal(b1-4)GlcNAc(b1-3)Gal(b1-4)GlcNAc(b1-3)Gal(b1-4)GlcNAc(b1-2)Man(a1-6)]Man(b1-4)GlcNAc(b1-4)[Fuc(a1-6)]GlcNAc
# How it was run: as §1
# [6] = target: Gal(b1-4)GlcNAc(b1-3)Gal(b1-4)GlcNAc(b1-3)Gal(b1-4)GlcNAc(b1-2)[Gal(b1-4)GlcNAc(b1-3)Gal(b1-4)GlcNAc(b1-3)Gal(b1-4)GlcNAc(b1-6)]Man(a1-6)[Gal(b1-4)GlcNAc(b1-3)Gal(b1-4)GlcNAc(b1-3)Gal(b1-4)GlcNAc(b1-2)Man(a1-3)]Man(b1-4)GlcNAc(b1-4)[Fuc(a1-6)]GlcNAc
# How it was run: as §1
# [7] = target: Gal(b1-4)GlcNAc(b1-3)Gal(b1-4)GlcNAc(b1-3)Gal(b1-4)GlcNAc(b1-3)Gal(b1-4)GlcNAc(b1-2)Man(a1-3)[Gal(b1-4)GlcNAc(b1-3)Gal(b1-4)GlcNAc(b1-3)Gal(b1-4)GlcNAc(b1-3)Gal(b1-4)GlcNAc(b1-2)Man(a1-6)]Man(b1-4)GlcNAc(b1-4)GlcNAc
# How it was run: as §1
# [8] = target: Gal(b1-4)GlcNAc(b1-3)Gal(b1-4)GlcNAc(b1-3)Gal(b1-4)GlcNAc(b1-3)Gal(b1-4)GlcNAc(b1-2)Man(a1-3)[Gal(b1-4)GlcNAc(b1-3)Gal(b1-4)GlcNAc(b1-3)Gal(b1-4)GlcNAc(b1-3)Gal(b1-4)GlcNAc(b1-2)Man(a1-6)]Man(b1-4)GlcNAc(b1-4)[Fuc(a1-6)]GlcNAc
# How it was run: as §1
# [9] = target: Gal(b1-4)GlcNAc(b1-3)Gal(b1-4)GlcNAc(b1-3)Gal(b1-4)GlcNAc(b1-3)Gal(b1-4)GlcNAc(b1-2)[Gal(b1-4)GlcNAc(b1-3)Gal(b1-4)GlcNAc(b1-3)Gal(b1-4)GlcNAc(b1-3)Gal(b1-4)GlcNAc(b1-6)]Man(a1-6)[Gal(b1-4)GlcNAc(b1-3)Gal(b1-4)GlcNAc(b1-3)Gal(b1-4)GlcNAc(b1-3)Gal(b1-4)GlcNAc(b1-2)Man(a1-3)]Man(b1-4)GlcNAc(b1-4)[Fuc(a1-6)]GlcNAc
# How it was run: as §1
# [10] = target: Gal(b1-4)GlcNAc(b1-3)Gal(b1-4)GlcNAc(b1-3)Gal(b1-4)GlcNAc(b1-3)Gal(b1-4)GlcNAc(b1-3)Gal(b1-4)GlcNAc(b1-2)Man(a1-3)[Gal(b1-4)GlcNAc(b1-3)Gal(b1-4)GlcNAc(b1-3)Gal(b1-4)GlcNAc(b1-3)Gal(b1-4)GlcNAc(b1-3)Gal(b1-4)GlcNAc(b1-2)Man(a1-6)]Man(b1-4)GlcNAc(b1-4)GlcNAc
# How it was run: as §1
# [11] = target: Gal(b1-4)GlcNAc(b1-3)Gal(b1-4)GlcNAc(b1-3)Gal(b1-4)GlcNAc(b1-3)Gal(b1-4)GlcNAc(b1-3)Gal(b1-4)GlcNAc(b1-2)Man(a1-3)[Gal(b1-4)GlcNAc(b1-3)Gal(b1-4)GlcNAc(b1-3)Gal(b1-4)GlcNAc(b1-3)Gal(b1-4)GlcNAc(b1-3)Gal(b1-4)GlcNAc(b1-2)Man(a1-6)]Man(b1-4)GlcNAc(b1-4)[Fuc(a1-6)]GlcNAc
# How it was run: as §1
# [12] = target: Gal(b1-4)GlcNAc(b1-3)Gal(b1-4)GlcNAc(b1-3)Gal(b1-4)GlcNAc(b1-3)Gal(b1-4)GlcNAc(b1-3)Gal(b1-4)GlcNAc(b1-2)[Gal(b1-4)GlcNAc(b1-3)Gal(b1-4)GlcNAc(b1-3)Gal(b1-4)GlcNAc(b1-3)Gal(b1-4)GlcNAc(b1-3)Gal(b1-4)GlcNAc(b1-6)]Man(a1-6)[Gal(b1-4)GlcNAc(b1-3)Gal(b1-4)GlcNAc(b1-3)Gal(b1-4)GlcNAc(b1-3)Gal(b1-4)GlcNAc(b1-3)Gal(b1-4)GlcNAc(b1-2)Man(a1-3)]Man(b1-4)GlcNAc(b1-4)[Fuc(a1-6)]GlcNAc
# How it was run: as §1
# [13] = target: Gal(b1-4)GlcNAc(b1-3)Gal(b1-4)GlcNAc(b1-3)Gal(b1-4)GlcNAc(b1-3)Gal(b1-4)GlcNAc(b1-3)Gal(b1-4)GlcNAc(b1-3)Gal(b1-4)GlcNAc(b1-2)Man(a1-3)[Gal(b1-4)GlcNAc(b1-3)Gal(b1-4)GlcNAc(b1-3)Gal(b1-4)GlcNAc(b1-3)Gal(b1-4)GlcNAc(b1-3)Gal(b1-4)GlcNAc(b1-3)Gal(b1-4)GlcNAc(b1-2)Man(a1-6)]Man(b1-4)GlcNAc(b1-4)GlcNAc
# How it was run: as §1
# [14] = target: Gal(b1-4)GlcNAc(b1-3)Gal(b1-4)GlcNAc(b1-3)GalNAc
# How it was run: as §1
# [15] = target: Gal(b1-4)GlcNAc(b1-3)Gal(b1-4)GlcNAc(b1-3)[Gal(b1-4)GlcNAc(b1-3)Gal(b1-4)GlcNAc(b1-6)]GalNAc
# How it was run: as §1
# [16] = target: Gal(b1-4)GlcNAc(b1-3)Gal(b1-4)GlcNAc(b1-6)[Gal(b1-3)]GalNAc
# How it was run: as §1
# [17] = target: Gal(b1-4)GlcNAc(b1-3)Gal(b1-4)[Fuc(a1-3)]GlcNAc(b1-3)Gal(b1-4)[Fuc(a1-3)]GlcNAc
# How it was run: as §1
# [18] = target: Gal(b1-4)GlcNAc(b1-3)GalNAc
# How it was run: as §1
binder,measurement,setting,value
B1,glycan array binding signal (z-score),[1],-0.371
same,glycan array binding signal (z-score),[2],-0.341
same,glycan array binding signal (z-score),[3],-0.334
same,glycan array binding signal (z-score),[4],-0.115
same,glycan array binding signal (z-score),[5],-0.345
same,glycan array binding signal (z-score),[6],-0.126
same,glycan array binding signal (z-score),[7],-0.34
same,glycan array binding signal (z-score),[8],-0.155
same,glycan array binding signal (z-score),[9],-0.026
same,glycan array binding signal (z-score),[10],-0.219
same,glycan array binding signal (z-score),[11],-0.231
same,glycan array binding signal (z-score),[12],-0.21
same,glycan array binding signal (z-score),[13],-0.306
same,glycan array binding signal (z-score),[14],-0.177
same,glycan array binding signal (z-score),[15],-0.072
same,glycan array binding signal (z-score),[16],-0.003
same,glycan array binding signal (z-score),[17],-0.254
same,glycan array binding signal (z-score),[18],-0.023
